This is one part of the list. Repeats are few or missing, and single values can be far off.
Columns and labels:
Assay in all cases: cell count relative to DMSO control; melanoma cells; higher = more viable cells
Details in all cases: library dose: standard library concentration; 72 h
[1] = system: G361
[2] = system: IPC-298
[3] = system: IST-MEL1
[4] = system: LB2518-MEL
[5] = system: LOXIMVI
[6] = system: MEL-HO
[7] = system: MZ2-MEL
[8] = system: MeWo
[9] = system: RPMI7951
[10] = system: RVH-421
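Note: cells treated in 1,536-well plates, then fixed and DAPI-stained, with nuclei counted from automated high-throughput microscope images.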

SMILES | cell count [1] | cell count [2] | cell count [3] | cell count [4] | cell count [5] | cell count [6] | cell count [7] | cell count [8] | cell count [9] | cell count [10]
O=C(O)c1ccc(-c2c[nH]c3ncc(-c4ccccc4)cc23)cc1C1CCCC1 + Cc1cc([N+](=O)[O-])ccc1NS(=O)(=O)c1cc(Cl)ccc1Cl [FH535] (first compound 0.8 µM, partner dose 5 µM) | 35.1% | 51.1% | 42.6% | 77.8% | 70.6% | 48.3% | 54.8% | 79.2% | 72% | 66.2%
Cn1cncc1[C@@](N)(c1ccc(Cl)cc1)c1ccc2c(c1)c(-c1cccc(Cl)c1)cc(=O)n2C [tipifarnib] + O=C1NC(=O)/C(=C/c2ccc(-c3ccc(F)cc3O)o2)S1 [AS252424] (first compound 0.05 µM, partner dose 5 µM) | 81.4% | 73.7% | 96% | 74.2% | 79.9% | 69.1% | 76.4% | 80.4% | 92.4% | 82.6%
O=c1[nH]nc(Sc2ncc([N+](=O)[O-])s2)n1-c1ccc2c(c1)OCCO2 + Cc1cc(N2CCOCC2)cc2[nH]c(-c3c(NC[C@@H](O)c4cccc(Cl)c4)cc[nH]c3=O)nc12 [BMS536924] (first compound 1 µM, partner dose 1 µM) | 91.3% | 100% | 114% | 77.8% | 107% | 96.9% | 124% | 75% | 83.4% | 111%
Cn1cncc1[C@@](N)(c1ccc(Cl)cc1)c1ccc2c(c1)c(-c1cccc(Cl)c1)cc(=O)n2C [tipifarnib] + CN(NC(=O)CC(=O)NN(C)C(=S)c1ccccc1)C(=S)c1ccccc1 [STA4783] (first compound 0.05 µM, partner dose 0.03 µM) | 31.4% | 67.7% | 34.4% | 18.9% | 55.2% | 82.5% | 88.6% | 10.5% | 54.4% | 55.1%
O=c1[nH]nc(Sc2ncc([N+](=O)[O-])s2)n1-c1ccc2c(c1)OCCO2 + CCCCCCCCCCCC1=C(O)C(=O)C=C(O)C1=O [Embelin] (first compound 1 µM, partner dose 6 µM) | 60.6% | 67.8% | 56.3% | 86.2% | 75.8% | 62.4% | 92% | 92.2% | 77.4% | 47.2%
C[C@@H]1CCN(C(=O)CC#N)C[C@@H]1N(C)c1ncnc2[nH]ccc12 + COc1ccc(-c2ccc3c(N4CCOCC4)nc(N4C[C@@H](C)O[C@@H](C)C4)nc3n2)cc1CO [KU0063794] (first compound 5 µM, partner dose 0.1 µM) | 94.4% | 77.1% | 112% | 89.8% | 74.3% | 93.7% | 78% | 78.1% | 74.7% | 89.5%
CC1(C)NC(=O)N(c2ccc([N+](=O)[O-])c(C(F)(F)F)c2)C1=O [nilutamide] + C[C@@H]1CCN(C(=O)CC#N)C[C@@H]1N(C)c1ncnc2[nH]ccc12 [CP690550] (first compound 5 µM, partner dose 5 µM) | 101% | 101% | 104% | 111% | 79.7% | 95.6% | 124% | 77.7% | 120% | 91%
CC1(C)NC(=O)N(c2ccc([N+](=O)[O-])c(C(F)(F)F)c2)C1=O [nilutamide] + CN(NC(=O)CC(=O)NN(C)C(=S)c1ccccc1)C(=S)c1ccccc1 [STA4783] (first compound 5 µM, partner dose 0.03 µM) | 29.4% | 80.5% | 25.8% | 28.1% | 66% | 81.6% | 115% | 13.9% | 89.8% | 96.4%
Cn1cncc1[C@@](N)(c1ccc(Cl)cc1)c1ccc2c(c1)c(-c1cccc(Cl)c1)cc(=O)n2C [tipifarnib] + COc1ccc(COc2ccc(Cc3cnc(N)nc3N)cc2OC)cc1 [GW2580] (first compound 0.05 µM, partner dose 5 µM) | 77.4% | 77.7% | 88.5% | 71.3% | 47.3% | 82.4% | 78.4% | 87.3% | 74% | 82.3%
O=C(Nc1cccc(Cl)c1)Nc1ncc(CCNc2ncnc3ccsc23)s1 + COc1ccc(-c2ccc3c(N4CCOCC4)nc(N4C[C@@H](C)O[C@@H](C)C4)nc3n2)cc1CO [KU0063794] (first compound 0.004 µM, partner dose 0.1 µM) | 74.8% | 74.4% | 66.2% | 78.5% | 77.6% | 61.6% | 63.2% | 66.8% | 51.4% | 69.6%
O=C(O)c1ccc(-c2c[nH]c3ncc(-c4ccccc4)cc23)cc1C1CCCC1 + COc1ccc(-c2ccc3c(N4CCOCC4)nc(N4C[C@@H](C)O[C@@H](C)C4)nc3n2)cc1CO [KU0063794] (first compound 0.8 µM, partner dose 0.1 µM) | 48.9% | 55.2% | 79.9% | 66.6% | 72% | 60.6% | 63.1% | 77.6% | 74.7% | 88.3%
Cn1cncc1[C@@](N)(c1ccc(Cl)cc1)c1ccc2c(c1)c(-c1cccc(Cl)c1)cc(=O)n2C [tipifarnib] + Oc1cc(-c2nc(-c3ccccc3)[nH]c2-c2ccncc2)ccc1Cl [L779450] (first compound 0.05 µM, partner dose 1 µM) | 51.4% | 68.2% | 90.1% | 52.8% | 97.6% | 84.3% | 89.1% | 89% | 92.4% | 87.7%
CC1(C)NC(=O)N(c2ccc([N+](=O)[O-])c(C(F)(F)F)c2)C1=O [nilutamide] + O=c1cc(-c2cccc3c2Sc2ccccc2S3)oc(N2CCOCC2)c1 [KU55933] (first compound 5 µM, partner dose 5 µM) | 86.7% | 93.4% | 113% | 99.7% | 136% | 82.6% | 90.1% | 99.7% | 98.2% | 18.2%
COc1cc(Nc2ncc(F)c(Nc3ccc4c(n3)NC(=O)C(C)(C)O4)n2)cc(OC)c1OC [Tamatinib] + COc1cc2ncnc(Nc3ccc(Oc4ccccc4)cc3)c2cc1OC [SrcI1] (first compound 2 µM, partner dose 10 µM) | 44.3% | 69.5% | 83.8% | 85.8% | 22.3% | 70.2% | 51% | 63% | 18.5% | 101%
CC1(C)NC(=O)N(c2ccc([N+](=O)[O-])c(C(F)(F)F)c2)C1=O [nilutamide] + COc1ccc(COc2ccc(Cc3cnc(N)nc3N)cc2OC)cc1 [GW2580] (first compound 5 µM, partner dose 5 µM) | 77.9% | 88.1% | 93% | 98.2% | 105% | 104% | 92.7% | 91.2% | 118% | 82.6%
O=c1[nH]nc(Sc2ncc([N+](=O)[O-])s2)n1-c1ccc2c(c1)OCCO2 + COc1ccc2c(c1)CCC1C2CCC2(C)C(NCCCCCCN3C(=O)C=CC3=O)CCC12 [U73122] (first compound 1 µM, partner dose 2 µM) | 89.3% | 98.3% | 98% | 101% | 83.4% | 91.4% | 107% | 76.3% | 42.2% | 102%
C[C@@H]1CCN(C(=O)CC#N)C[C@@H]1N(C)c1ncnc2[nH]ccc12 + COc1ccc2c(c1)CCC1C2CCC2(C)C(NCCCCCCN3C(=O)C=CC3=O)CCC12 [U73122] (first compound 5 µM, partner dose 2 µM) | 98.8% | 99.5% | 96.1% | 101% | 88.3% | 95.9% | 85.1% | 92.2% | 86.8% | 91.6%
Cn1cncc1[C@@](N)(c1ccc(Cl)cc1)c1ccc2c(c1)c(-c1cccc(Cl)c1)cc(=O)n2C [tipifarnib] + N#Cc1c(O)c2c(-c3ccc(-c4ccccc4O)cc3)csc2[nH]c1=O [A769662] (first compound 0.05 µM, partner dose 10 µM) | 81.1% | 88.3% | 86.9% | 67.1% | 80.8% | 90.4% | 82% | 90% | 104% | 81.2%
O=c1[nH]nc(Sc2ncc([N+](=O)[O-])s2)n1-c1ccc2c(c1)OCCO2 + O=C(Nc1ccccc1)c1cc([N+](=O)[O-])ccc1Cl [GW9662] (first compound 1 µM, partner dose 10 µM) | 62.1% | 97.3% | 82.2% | 70.9% | 69.4% | 72.4% | 74.4% | 49.4% | 53.8% | 73.5%
O=c1[nH]nc(Sc2ncc([N+](=O)[O-])s2)n1-c1ccc2c(c1)OCCO2 + Cn1nnc2c(C(N)=O)ncn2c1=O [temozolomide] (first compound 1 µM, partner dose 10 µM) | 84.4% | 61.3% | 76.8% | 65% | 99.2% | 78.3% | 89.6% | 81.6% | 76.5% | 112%
O=C(O)c1ccc(-c2c[nH]c3ncc(-c4ccccc4)cc23)cc1C1CCCC1 + N#Cc1c(O)c2c(-c3ccc(-c4ccccc4O)cc3)csc2[nH]c1=O [A769662] (first compound 0.8 µM, partner dose 10 µM) | 77.9% | 95.3% | 75.4% | 90.5% | 118% | 82.7% | 52.4% | 94.3% | 68.3% | 86.2%
CC1(C)NC(=O)N(c2ccc([N+](=O)[O-])c(C(F)(F)F)c2)C1=O [nilutamide] + Cn1cncc1[C@@](N)(c1ccc(Cl)cc1)c1ccc2c(c1)c(-c1cccc(Cl)c1)cc(=O)n2C [tipifarnib] (first compound 5 µM, partner dose 0.05 µM) | 84.4% | 81.8% | 61.3% | 64.7% | 73.2% | 88.7% | 102% | 77.8% | 64% | 77.7%

From the supplement of paper PMC4604168 (melanoma cell lines)
